Measurements as given in the supplement of paper PMC10126150.
Sequences with one replicate were seen in a single cluster, so their values are uncertain.

Tested on: ATP
Experiment: switch fluorescence ratio, 500 uM ATP over buffer (Cy3 cluster intensity, sum of 5 cycles each) (fold (ratio)); higher = stronger signal-on switching upon ATP binding; sequences stand for … in TCGTCGGCAGCGTCAGATGTGTATAAGAGACAGTTTTTTTTTTTTTTTTTTTTTTTTT…TC
Details: aptamer strand: ATP DNA aptamer (quencher-CACCTGGGGGAGTATTGCGGAGGAAGG + anchor), 100 nM annealed; ATP concentration: 500 uM; one replicate
Procedure, shortened: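 Imaging in selection buffer was followed by imaging after 15 min with 500 uM ATP at 22 °C, for Cy3-labelled switching-strand clusters annealed to 100 nM quencher-labelled ATP aptamer on a modified Illumina MiSeq flow-cell. Five of these buffer/ATP cycles ran, separated by NaOH stripping and re-annealing. The fluorescence ratio per cluster is summed target-cycle over summed buffer-cycle Cy3 intensity, averaged per switch-domain sequence; clusters outside 100-1000 RFU were removed.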
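Also: ATP exposure 15 min at 22 °C before imaging.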

Row | Sequence | switch fluorescence ratio
1 | AGTGTTGAGA | 1.03
2 | AGTGTTTATG | 0.996
3 | AGTTACCCTA | 1.1
4 | AGTTACGAGT | 1.01
5 | AGTTACGGGG | 1.01
6 | AGTTACTTGT | 0.978
7 | AGTTAGCAGT | 1.04
8 | AGTTAGCGCT | 0.999
9 | AGTTAGCTGA | 1.02
10 | AGTTAGGCGC | 1
11 | AGTTAGGTCT | 0.935
12 | AGTTAGTCTA | 1.01
13 | AGTTAGTGCT | 1
14 | AGTTATACAG | 0.956
15 | AGTTATCTA | 1.03
16 | AGTTATGGAC | 1.01
17 | AGTTATGTGT | 0.976
18 | AGTTCACAGC | 0.999
19 | AGTTCACCGT | 1.03
20 | AGTTCACGGG | 1.02
21 | AGTTCAGTCT | 1.02
22 | AGTTCCTGTG | 1.02
23 | AGTTCCTTCG | 2.49
24 | AGTTCTTCA | 1.02
25 | AGTTCTTCGG | 0.965
26 | AGTTGAC | 1.05

Row | Sequence | switch fluorescence ratio
27 | AGTTGCCATC | 1.01
28 | AGTTGCTACT | 1.02
29 | AGTTGGGAAT | 1.01
30 | AGTTGTAAAA | 0.984
31 | AGTTGTGTCA | 0.946
32 | AGTTGTTTAA | 1.23
33 | AGTTTAGAGA | 1.01
34 | AGTTTAGCTG | 0.945
35 | AGTTTCAGGG | 1.02
36 | AGTTTCCCAG | 1.07
37 | AGTTTCG | 0.995
38 | AGTTTCGAAT | 0.99
39 | AGTTTCGCAC | 1.04
40 | AGTTTGC | 0.973
41 | AGTTTGTTAT | 1.01
42 | AGTTTTACA | 0.988
43 | AGTTTTCG | 1
44 | AGTTTTTCTG | 0.94
45 | ATAAAATCTG | 0.954
46 | ATAAAATCTT | 0.998
47 | ATAAAATGAT | 1.02
48 | ATAAACACG | 1.04
49 | ATAAAGAGAC | 0.993
50 | ATAAAGCCA | 1.01
51 | ATAAAGCTAA | 1.03
52 | ATAAAGGACG | 1

Row | Sequence | switch fluorescence ratio
53 | ATAAAGTCGT | 0.985
54 | ATAAATACCT | 1.42
55 | ATAACGCCAG | 1.01
56 | ATAACGGGCC | 1.07
57 | ATAACTCGC | 1.04
58 | ATAACTGGGA | 0.997
59 | ATAAGAGGAT | 1.01
60 | ATAAGAGT | 1.03
61 | ATAAGATTAA | 0.971
62 | ATAAGCAGAC | 2.18
63 | ATAAGCCGAA | 1.04
64 | ATAAGGCGTG | 0.987
65 | ATAAGGCTT | 1
66 | ATAAGTAGCC | 1.05
67 | ATAAGTCAAG | 0.978
68 | ATAAGTCCAG | 1.01
69 | ATAAGTGACC | 1.04
70 | ATAAGTTGAG | 1.03
71 | ATAAGTTGCG | 0.97
72 | ATAATCGACT | 0.999
73 | ATAATCGCCT | 1.01
74 | ATAATCGTGG | 0.995
75 | ATAATCTCCG | 1.15
76 | ATAATGGGTG | 1.12
77 | ATAATTAGAC | 1
78 | ATACAAA | 0.967

Row | Sequence | switch fluorescence ratio
79 | ATACAAAGGG | 1.01
80 | ATACAATCGC | 1.03
81 | ATACACTAGT | 1.06
82 | ATACAGATTT | 1.07
83 | ATACAGCGTG | 0.983
84 | ATACAGTAAA | 1.05
85 | ATACCACTGG | 1.08
86 | ATACCATCCA | 0.992
87 | ATACCCTTTT | 0.964
88 | ATACCTAACA | 1.13
89 | ATACCTTC | 1.55
90 | ATACGAGGCT | 1.07
91 | ATACGATCTA | 0.979
92 | ATACGCACCG | 1.02
93 | ATACGCACTG | 1.77
94 | ATACGCCCCG | 1
95 | ATACGCTATT | 1.27
96 | ATACGGCAGT | 1.03
97 | ATACGGTGAC | 1.24
98 | ATACGTAGGG | 1.06
99 | ATACGTATGG | 1.04
100 | ATACTAATC | 1.03
101 | ATACTACACT | 1.33
102 | ATACTAGGGA | 0.998
103 | ATACTCAAGA | 1.05
104 | ATACTGATAA | 1.08

Row | Sequence | switch fluorescence ratio
105 | ATACTGATCG | 1.06
106 | ATACTGCAGC | 1.02
107 | ATACTGGCAC | 1.15
108 | ATACTGTGTG | 0.967
109 | ATACTTAGT | 0.976
110 | ATACTTGATC | 1.02
111 | ATACTTGTGA | 0.943
112 | ATACTTTCGT | 0.95
113 | ATAGAAAAAC | 1.04
114 | ATAGACATAG | 1.02
115 | ATAGCATCTG | 1.01
116 | ATAGCGTGCT | 1.01
117 | ATAGCTCT | 0.98
118 | ATAGCTTACT | 1.21
119 | ATAGGAAATT | 0.995
120 | ATAGGAACTC | 1.03
121 | ATAGGACGAG | 0.982
122 | ATAGGATTTC | 0.982
123 | ATAGGCACGT | 1.01
124 | ATAGGCTTTG | 1.02
125 | ATAGGGCAAT | 1.22
126 | ATAGGGCCTG | 1.04
127 | ATAGGGTGGC | 0.953
128 | ATAGGTCTAC | 0.965
129 | ATAGGTGAGT | 1.04
130 | ATAGGTTAGT | 1.05

Row | Sequence | switch fluorescence ratio
131 | ATAGTAGCAG | 1.01
132 | ATAGTCATGG | 0.982
133 | ATAGTCGCCT | 1.06
134 | ATAGTCGCTT | 0.99
135 | ATAGTCGTGC | 1.03
136 | ATAGTGAGGG | 0.955
137 | ATAGTGCC | 1.04
138 | ATAGTGTTGC | 0.956
139 | ATAGTTATTC | 0.974
140 | ATAGTTC | 1.02
141 | ATAGTTCGCT | 1
142 | ATAGTTGCAG | 0.987
143 | ATATAAATGC | 1.04
144 | ATATAAGTAA | 0.998
145 | ATATAATGCG | 0.994
146 | ATATACCAGT | 1.08
147 | ATATACGCT | 1.06
148 | ATATACGGC | 0.978
149 | ATATACGGTT | 1
150 | ATATAGACTC | 1.05
151 | ATATAGGCGC | 1
152 | ATATAGGTGT | 1.07
153 | ATATAGTATT | 1.02
154 | ATATATGACC | 1.07
155 | ATATATTACG | 1.04
156 | ATATATTATT | 0.989

Row | Sequence | switch fluorescence ratio
157 | ATATCCCAAT | 1.13
158 | ATATCCTCTG | 1.08
159 | ATATCTATTG | 0.984
160 | ATATCTCGCG | 0.984
161 | ATATCTGATT | 1.02
162 | ATATGGCCGG | 0.964
163 | ATATGGGTT | 0.994
164 | ATATGGTCCT | 1.01
165 | ATATGTATAG | 1.05
166 | ATATGTGAAG | 1.02
167 | ATATGTGTCA | 1.04
168 | ATATTAAACT | 1.02
169 | ATATTAAAGC | 0.967
170 | ATATTAAATT | 1.02
171 | ATATTACCAT | 1.03
172 | ATATTAGTTC | 1.01
173 | ATATTCAATT | 0.99
174 | ATATTCACGA | 1.03
175 | ATATTGGAT | 0.998
176 | ATATTGTATT | 1.05
177 | ATATTTATGG | 0.995
178 | ATATTTGGA | 1.02
179 | ATATTTTCTG | 0.968
180 | ATCAAAATGA | 1
181 | ATCAACTTTG | 0.998
182 | ATCAATAACG | 1.01

Row | Sequence | switch fluorescence ratio
183 | ATCACACTCG | 1.02
184 | ATCACAGAGA | 0.968
185 | ATCACGAAG | 1.02
186 | ATCACGACTC | 1.01
187 | ATCACGGCTG | 1.02
188 | ATCACTGTTT | 0.932
189 | ATCAGACCTC | 1.01
190 | ATCAGAGCGT | 0.971
191 | ATCAGAGTC | 1.02
192 | ATCAGATTCC | 1.08
193 | ATCAGCCTGC | 1.08
194 | ATCAGCGGAA | 0.995
195 | ATCAGGAATA | 1.04
196 | ATCAGGACCG | 0.983
197 | ATCAGGCTAG | 1.01
198 | ATCAGGGTTG | 0.98
199 | ATCAGTAGT | 1.03
200 | ATCAGTGATA | 1.08
201 | ATCATAAGAG | 1.02
